Reference: the supplement of paper PMC10126150
Values marked as one replicate rest on one cluster of the flow cell; about a third of the high ones do not repeat.

Test system: ATP
Assay: switch fluorescence ratio, 500 uM ATP over buffer (Cy3 cluster intensity, sum of 5 cycles each) (fold (ratio)); higher = stronger signal-on switching upon ATP binding; sequences stand for … in TCGTCGGCAGCGTCAGATGTGTATAAGAGACAGTTTTTTTTTTTTTTTTTTTTTTTTT…TC
Conditions: aptamer strand: ATP DNA aptamer (quencher-CACCTGGGGGAGTATTGCGGAGGAAGG + anchor), 100 nM annealed; ATP concentration: 500 uM; one replicate
Method in brief: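 The fluorescence ratio divides summed target-cycle Cy3 intensity by summed buffer-cycle Cy3 intensity for each cluster and is averaged per switch-domain sequence. Cy3-labelled switching-strand clusters on a modified Illumina MiSeq flow-cell were annealed to 100 nM quencher-labelled ATP aptamer, then imaged in selection buffer and again after 15 min with 500 uM ATP at 22 °C. Five such cycles were run, with NaOH stripping and re-annealing between them, and clusters outside 100-1000 RFU were excluded.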
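Also: ATP exposure 15 min at 22 °C before imaging.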

Row | Sequence | switch fluorescence ratio
1 | GATTGCTGTA | 0.981
2 | GATTGGCCGC | 1.13
3 | GATTGGTTTA | 0.972
4 | GATTGTAGAG | 0.998
5 | GATTGTCTGA | 0.999
6 | GATTGTCTTG | 1
7 | GATTGTGGGA | 1.04
8 | GATTGTGTCA | 1
9 | GATTTAACTT | 0.967
10 | GATTTACTAT | 1.01
11 | GATTTACTTT | 0.964
12 | GATTTAGGGT | 0.975
13 | GATTTCAGTT | 0.986
14 | GATTTCCGG | 1.05
15 | GATTTCCTCT | 1.1
16 | GATTTCTTGC | 1.02
17 | GATTTGAGGA | 1.03
18 | GATTTGCGCG | 0.975
19 | GATTTGGAT | 0.99
20 | GATTTGGTCG | 0.96
21 | GATTTTGAGG | 0.968
22 | GATTTTTGAC | 0.983
23 | GATTTTTGT | 0.984
24 | GCAAAAATTA | 1.05
25 | GCAAAATGTT | 1.01

Row | Sequence | switch fluorescence ratio
26 | GCAAAATTGA | 1.04
27 | GCAAACAGTT | 0.958
28 | GCAAACGGGA | 1.1
29 | GCAAAGAACT | 1.03
30 | GCAAAGAGAA | 1.01
31 | GCAAAGAGGA | 1.02
32 | GCAAAGGTAG | 1.02
33 | GCAAAGTCTT | 1.02
34 | GCAAATCGCT | 1.02
35 | GCAAATTT | 1.02
36 | GCAACAAGCG | 1.02
37 | GCAACATAAC | 1.2
38 | GCAACCTGGG | 1.04
39 | GCAACGGTAA | 1.1
40 | GCAACGTGAA | 1.01
41 | GCAACTAAGG | 0.995
42 | GCAACTTCGT | 1.01
43 | GCAAGGGGGC | 1.08
44 | GCAAGGTAGT | 1.02
45 | GCAAGGTGCG | 0.992
46 | GCAAGTTATA | 1.03
47 | GCAAGTTTCC | 1.35
48 | GCAATAAACC | 1.38
49 | GCAATACGCT | 3.14
50 | GCAATAGTCA | 5.29

Row | Sequence | switch fluorescence ratio
51 | GCAATCATGG | 1.07
52 | GCAATCCTGC | 1.22
53 | GCAATCTTTC | 1.28
54 | GCAATGACGG | 1.17
55 | GCACAGATTG | 0.965
56 | GCACAGTGTG | 1.05
57 | GCACATAGGT | 1.06
58 | GCACATAGTC | 1.24
59 | GCACATGGCG | 0.985
60 | GCACCCCAGT | 1.6
61 | GCACCCCCAC | 1.39
62 | GCACCTAGCC | 1.03
63 | GCACCTGGAC | 1.18
64 | GCACGAAACT | 1.17
65 | GCACGATAAA | 1.15
66 | GCACGGGGTG | 0.985
67 | GCACGGTACA | 1.68
68 | GCACGGTAGT | 1.03
69 | GCACGTTATC | 1.17
70 | GCACGTTGTA | 1.04
71 | GCACTACGTC | 1.07
72 | GCACTATTGA | 1.01
73 | GCACTGATTT | 1.01
74 | GCACTGGTGC | 0.998
75 | GCACTGTCAG | 0.999

Row | Sequence | switch fluorescence ratio
76 | GCACTTAAGG | 1.05
77 | GCACTTCGTT | 1
78 | GCACTTTG | 1.02
79 | GCACTTTGCG | 0.989
80 | GCACTTTGTA | 1.02
81 | GCACTTTGTT | 1
82 | GCAGACAATC | 1.95
83 | GCAGAGCTGG | 1.01
84 | GCAGAGGCGG | 0.998
85 | GCAGATATGG | 1.02
86 | GCAGCAGGTA | 1.11
87 | GCAGCCCCGC | 1.01
88 | GCAGCCTAGA | 1
89 | GCAGCGGAAT | 1.06
90 | GCAGCGTCGT | 0.98
91 | GCAGCGTGCA | 1.03
92 | GCAGCTATGT | 1.08
93 | GCAGGAGGAG | 1.01
94 | GCAGGCCAAC | 1.18
95 | GCAGGGAAGT | 0.98
96 | GCAGGGCTAA | 0.984
97 | GCAGGGCTTA | 0.995
98 | GCAGGGGAAT | 1.01
99 | GCAGGGGTCT | 0.999
100 | GCAGGTACGG | 1.01
